Measured values: publication PMC9911399, “Two distinct binding modes provide the RNA-binding protein RbFox with extraordinary sequence specificity”
Changes are numbered by the printed parent chain; changes in the protein carry UniProt numbers. This is one part of the list.

T1: RBFOX1 RRM RbFoxmut (Fox-RRM*) (Homo sapiens, UniProt Q9NWB1 109-208, R118D;E147R;N151S;E152T)
T1 sequence: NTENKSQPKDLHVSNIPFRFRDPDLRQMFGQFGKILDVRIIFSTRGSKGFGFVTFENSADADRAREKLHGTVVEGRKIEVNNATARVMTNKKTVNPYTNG

B1: CCAAAUG (DNA:RNA)
RNA: GGGAGACCGGAAUUCAGAUUGUCCCCAAAUGUUAAAUCCCGUCGUAGCCACCA
DNA 1: CAATCTGAATTCCGGTCTCCC
DNA 2: TGGTGGCTACGACGGGATT
B2: GUGAAGA (DNA:RNA)
RNA: B1 RNA with C25G, C26U, A27G, U30G, G31A
DNA 1: CAATCTGAATTCCGGTCTCCC
DNA 2: TGGTGGCTACGACGGGATT
B3: GUCGAGG (DNA:RNA)
RNA: B1 RNA with C25G, C26U, A27C, A28G, U30G
DNA 1: CAATCTGAATTCCGGTCTCCC
DNA 2: TGGTGGCTACGACGGGATT
B4: GAGGGUU (DNA:RNA)
RNA: B1 RNA with C25G, C26A, A27G, A28G, A29G, G31U
DNA 1: CAATCTGAATTCCGGTCTCCC
DNA 2: TGGTGGCTACGACGGGATT
B5: CCGUGAG (DNA:RNA)
RNA: B1 RNA with A27G, A28U, A29G, U30A
DNA 1: CAATCTGAATTCCGGTCTCCC
DNA 2: TGGTGGCTACGACGGGATT
B6: UAGCCCG (DNA:RNA)
RNA: B1 RNA with C25U, C26A, A27G, A28C, A29C, U30C
DNA 1: CAATCTGAATTCCGGTCTCCC
DNA 2: TGGTGGCTACGACGGGATT
B7: AUCGCAU (DNA:RNA)
RNA: GGGAGACCGGAAUUCAGAUUGUCCAUCGCAUUUAAAUCCCGUCGUAGCCACCA
DNA 1: CAATCTGAATTCCGGTCTCCC
DNA 2: TGGTGGCTACGACGGGATT
B8: AUACCAC (DNA:RNA)
RNA: B7 RNA with C27A, G28C, U31C
DNA 1: CAATCTGAATTCCGGTCTCCC
DNA 2: TGGTGGCTACGACGGGATT
B9: CCCACAC (DNA:RNA)
RNA: B7 RNA with A25C, U26C, G28A, U31C
DNA 1: CAATCTGAATTCCGGTCTCCC
DNA 2: TGGTGGCTACGACGGGATT
B10: CGUACAA (DNA:RNA)
RNA: B7 RNA with A25C, U26G, C27U, G28A, U31A
DNA 1: CAATCTGAATTCCGGTCTCCC
DNA 2: TGGTGGCTACGACGGGATT
B11: AUGACUC (DNA:RNA)
RNA: B7 RNA with C27G, G28A, A30U, U31C
DNA 1: CAATCTGAATTCCGGTCTCCC
DNA 2: TGGTGGCTACGACGGGATT
B12: UUCUUAG (DNA:RNA)
RNA: B7 RNA with A25U, G28U, C29U, U31G
DNA 1: CAATCTGAATTCCGGTCTCCC
DNA 2: TGGTGGCTACGACGGGATT
B13: UUUGCAC (DNA:RNA)
RNA: B7 RNA with A25U, C27U, U31C
DNA 1: CAATCTGAATTCCGGTCTCCC
DNA 2: TGGTGGCTACGACGGGATT
B14: ACGACAG (DNA:RNA)
RNA: B7 RNA with U26C, C27G, G28A, U31G
DNA 1: CAATCTGAATTCCGGTCTCCC
DNA 2: TGGTGGCTACGACGGGATT
B15: UUACGGC (DNA:RNA)
RNA: B7 RNA with A25U, C27A, G28C, C29G, A30G, U31C
DNA 1: CAATCTGAATTCCGGTCTCCC
DNA 2: TGGTGGCTACGACGGGATT
B16: AUUCCUU (DNA:RNA)
RNA: B7 RNA with C27U, G28C, A30U
DNA 1: CAATCTGAATTCCGGTCTCCC
DNA 2: TGGTGGCTACGACGGGATT
B17: CAGAACG (DNA:RNA)
RNA: B1 RNA with C26A, A27G, U30C
DNA 1: CAATCTGAATTCCGGTCTCCC
DNA 2: TGGTGGCTACGACGGGATT
B18: GUAUUAA (DNA:RNA)
RNA: B7 RNA with A25G, C27A, G28U, C29U, U31A
DNA 1: CAATCTGAATTCCGGTCTCCC
DNA 2: TGGTGGCTACGACGGGATT
B19: UCAGCGU (DNA:RNA)
RNA: B7 RNA with A25U, U26C, C27A, A30G
DNA 1: CAATCTGAATTCCGGTCTCCC
DNA 2: TGGTGGCTACGACGGGATT
B20: AAUACUC (DNA:RNA)
RNA: B7 RNA with U26A, C27U, G28A, A30U, U31C
DNA 1: CAATCTGAATTCCGGTCTCCC
DNA 2: TGGTGGCTACGACGGGATT

What follows are binders tested against T1, RBFOX1 RRM RbFoxmut (Fox-RRM*) (assay: EMSA; HiTS-Eq, 1 nM pool, 10 min; buffer printed only for the single-RNA assays: 10 mM Tris pH 7.5, 150 mM NaCl, 3.4 mM EDTA, 0.001% NP-40, 30 C). Settings: tags: His6 N-terminal (pET28a); label: 5' 32P.
Method in brief: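 Purified RbFox RRM (wild type or mutant) was equilibrated for 10 min in 50 µL with 1 nM of a 5′-radiolabelled pool of RNA with 7 randomized nucleotides, its flanks annealed to DNA oligonucleotides, across increasing protein concentrations. Free RNA was separated by 8% native PAGE, excised, reverse-transcribed, PCR-barcoded and sequenced on an Illumina HiSeq 2500. Relative association constants came from read-count changes of each variant against the control reaction, normalised to the cognate motif.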

| Binder | binding signal |
| --- | --- |
| B1 | 0.131 KA relative to UGCAUGU |
| B2 | 0.119 KA relative to UGCAUGU |
| B3 | 0.0976 KA relative to UGCAUGU |
| B4 | 0.0844 KA relative to UGCAUGU |
| B5 | 0.108 KA relative to UGCAUGU |
| B6 | 0.0987 KA relative to UGCAUGU |
| B7 | 0.126 KA relative to UGCAUGU |
| B8 | 0.106 KA relative to UGCAUGU |
| B9 | 0.0754 KA relative to UGCAUGU |
| B10 | 0.0599 KA relative to UGCAUGU |
| B11 | 0.0778 KA relative to UGCAUGU |
| B12 | 0.135 KA relative to UGCAUGU |
| B13 | 0.0972 KA relative to UGCAUGU |
| B14 | 0.0704 KA relative to UGCAUGU |
| B15 | 0.0823 KA relative to UGCAUGU |
| B16 | 0.0786 KA relative to UGCAUGU |
| B17 | 0.168 KA relative to UGCAUGU |
| B18 | 0.125 KA relative to UGCAUGU |
| B19 | 0.101 KA relative to UGCAUGU |
| B20 | 0.0499 KA relative to UGCAUGU |
